Laboratory results reported in PubChem BioAssay AID1745845 (National Center for Advancing Translational Sciences (NCATS), 2022).
Among all 360,000 compounds or so, about 2,600 (0.72%) were called active. Inconclusive results, whose numbers are uncertain, are shown with a selection of clear calls. Calls come from the whole dose curve; as a rule, active = well fitted inhibition curve with a large enough effect; inconclusive = small, poorly fitted or top-dose-only effect; inactive = no such curve, though single readings can be large or run the other way. Potencies beside an inconclusive call are fits to weak or partial responses and may not hold up.
% is set by controls: 0 for no effect and ±100 for the full control effect; potency is the fitted concentration of half-maximal effect; tags give direction and shape of the fitted curve.

Assay: Primary qHTS for Inhibitors of ATXN expression; note: nearly all actives have a fitted effect of over 55% in size
Settings: HEK-293 ATXN2-luciferase reporter, luminescence, 24 h; activity change, negative = inhibition: at 57 µM (top of the series)
Method in brief: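 qHTS (up to 57 uM final) was run with 24 h compound exposure of reporter cells at 37 °C. Each well was multiplexed: SteadyGlo luminescence measured ATXN2-luciferase expression after a fluorogenic Gly-Phe-AFC viability readout (25 uM final).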
For `COc1cccc(C(=O)NCC(c2ccc3c(c2)OCO3)N2CCN(c3ccc(F)cc3)CC2)c1` (centres undefined), the Potency was inconclusive: 25.1 µM [inhibitor, partial curve, poor fit].
With `CCOC(=O)c1cnc(Nc2ccc(OCC)cc2)nc1C` the Potency was “inactive”.
For `O=C1c2cccc3c([N+](=O)[O-])ccc(c23)C(=O)N1c1nccs1`, the Potency was inconclusive: 25.1 µM [inhibitor, single point].
For `COc1ccc(NC(=O)c2cc(Br)ccc2Cl)c([N+](=O)[O-])c1`, the Potency was inconclusive: 0.597 µM [inhibitor, full curve].
For `O=C(CN1CCN(CC(=O)Nc2ccccc2F)CC1)Nc1ccc(Cl)c(C(F)(F)F)c1`, the Potency was inconclusive: 35.5 µM [inhibitor, partial curve, poor fit].
With `CC1(Cc2ccccc2C#N)C(=O)Nc2ccc(OC(F)(F)F)cc21` (centres undefined) the Potency was “inactive”.
In the case of `Cc1c(N=Cc2ccc(-c3ccc(Cl)cc3)o2)c(=O)n(-c2ccccc2)n1C`, the Potency is reported as “inactive”.
In the case of `Cc1ccc(NC(=O)c2nc(S(=O)(=O)Cc3ccccc3)ncc2Cl)cc1`, the Potency is reported as inconclusive: 39.8 µM [inhibitor, single point].
For `FC(F)(F)c1ccc2c(c1)C1C=CCC1C(c1ccncc1)N2` (centres undefined), the Potency was inconclusive: 37.7 µM [inhibitor, single point].
For `CCN(CC)CCOCCOc1ccc(Cl)c2ccccc12`, the activity change, negative = inhibition was inconclusive: -52.9% [inhibitor].
With `COc1ccc(NC(=S)NCc2ccc3c(c2)OCO3)cc1` the Potency was “inactive”.
With `COCCn1c(C)cc(C2=NNC(=Nc3ccccc3F)SC2)c1C` the Potency was inconclusive: 1.26 µM [inhibitor, full curve, poor fit].
For `COc1ccc(OCCN2CCN(C(=O)c3ccc(OC(F)F)c(OC)c3)CC2)cc1`, the Potency was inconclusive: 39.8 µM [inhibitor, single point].
For `CCOc1ccc(NC(=S)NC(=O)/C=C/c2ccc(OC)c(OC)c2)c([N+](=O)[O-])c1`, the Potency was inconclusive: 10 µM [inhibitor, partial curve].
With `N=c1c2c(-c3ccccc3)c(-c3ccccc3)oc2ncn1CCN1CCOCC1` the Potency was “inactive”.
With `CCCCC(C=O)NC(=O)C(CC(C)C)NC(=O)OCc1ccccc1` (centres undefined) the Potency was inconclusive: 24.3 µM [inhibitor, partial curve].
In the case of `Fc1ccc(-c2cc(-c3ccccc3)nc(-n3cccn3)n2)cc1`, the Potency is reported as inconclusive: 28.2 µM [inhibitor, single point].
For `CSc1ncnc2c1cnn2-c1ccc(C)cc1C`, the Potency was “inactive”.
With `CC(=O)c1c(C)[nH]c(C(=O)CSc2nnc(-c3ccccc3)n2Cc2ccc3c(c2)OCO3)c1C` the Potency was inconclusive: 35.5 µM [inhibitor, single point].
